Where two headings read alike, the source gives them in different places.
Key:
[1] = system: Smaller Tea Tortrix (Adoxophyes orana fosciota); experiment: Insecticidal test on smaller tea tortrix, tea leaf dipping; format: in vivo; details: Adoxophyes orana, foliar, single agent 0.1 ppm, 4th instar larvae, 25° C.
[2] = system: Green Peach Aphid (Myzus persicae); experiment: Insecticidal test on green peach aphid, spraying of Chinese cabbage, control value; format: in vivo; details: Myzus persicae, 144 h, single agent, 6 days after spraying, read-out: Control degree (%)
[3] = system: Brown Rice Planthopper (Nilaparvata lugens); experiment: Insecticidal test on brown rice planthopper, rice seedling dipping; format: in vivo; details: 100 ppm, single agent; for Death rate (%) After 1 days: after 1 day
[4] = system: Southern Root-Knot Nematode (Meloidogyne incognita); experiment: Test for the effect on southern root-knot nematode, soil blending with granular preparation; format: in vivo; details: 300 g ai/10a, single agent, 60 days after treatment
[5] = system: Rice Water Weevil (Lissorhoptrus oryzophilus); experiment: Control of rice water weevil on paddyfield rice by nursery box application, extent of injury; format: in vivo; details: 0.5 g ai/Box, single agent
Rice Blast [6] = format: in vivo; details: 0.5 g ai/Box, single agent
[7] = system: Small Brown Planthopper (Laodelphax striatellus); experiment: Control of small brown planthopper on paddyfield rice by nursery box application, number of parasitic insects; format: in vivo; details: 0.5 g ai/Box, single agent
[8] = system: Rice Leafroller (Cnaphalocrosis medinalis); experiment: Control of rice leafroller on paddyfield rice by nursery box application, number of injured leaves; format: in vivo; details: 0.5 g ai/Box, single agent
[9] = system: Diamondback Moth (Plutella xyloxtella); experiment: Control of diamondback moth on cabbage by soil treatment, number of parasitic insects; format: in vivo; details: 5 mg ai/hill, 21 days after transplanting
Aphid = experiment: Control of aphid on cabbage by soil treatment, number of parasitic insects; format: in vivo; details: 5 mg ai/hill, 21 days after transplanting
Cutworm = experiment: Test for the effect against cutworm on beet, drench, number of injured hills per 100 hills; format: in vivo; details: 15 g ai/10a
[10] = system: Citrus Yellow Thrips (Frankliniella occidentalis); experiment: Control of citrus yellow thrips on egg plant by combined use with natural enemy pesticide, number of thrips; format: in vivo; details: 100 ppm, spray
[11] = system: Rice Leafroller (Cnaphalocrocis medinalis); experiment: Control of rice leafroller by submerged application to main paddyfield, percentage of injured leaves; format: in vivo; details: 10.0 g ai/10a
Rice Blast [12] = format: in vivo; details: 10.0 g ai/10a; submerged application
[13] = system: Barnyard Grass (Echinochloa crus-Galli); experiment: Herbicidal effect on barnyard grass by submerged application to main paddyfield; format: in vivo; set-up: key: 0 means “no effect”; 10 means “complete withering”; details: 10.0 g ai/10a; four weeks after the treatment
[14] = system: Bulrush (Scirpus juncoides Roxb.); experiment: Herbicidal effect on bulrush by submerged application to main paddyfield; format: in vivo; set-up: key: 0 means “no effect”; 10 means “complete withering”; details: 10.0 g ai/10a; four weeks after the treatment
rice plant = details: 10.0 g ai/10a; four weeks after the treatment
[15] = 96 h, read-out: Death rate (%) After 4 days
[16] = 168 h, read-out: Death rate (%) After 7 days
[17] = true leaf extraction season treatment

SMILES	pest or weed control at 0.1 ppm [1, 15] [%]	pest or weed control at 0.1 ppm [1, 16] [%]	pest or weed control at 100 ppm [2] [%]	Death rate (%) After 1 days [3] [%]	Death rate (%) After 5 days [3] [%]	Number of nematodes per 25 g of soil sample [4]	Extent of injury After 21 days [5]	Areal rate of disease spot (%) After 60 days (Rice Blast [6]) [%]	Number of parasitic planthoppers per 30 hills After 40 days [7]	Number of parasitic planthoppers per 30 hills After 60 days [7]	Percentage of injured leaves (%) After 50 days [8] [%]	Number of parasitic insects per 30 hills, Diamondback moth ([9]; plant foot treatment)	Number of parasitic insects per 30 hills, Diamondback moth ([9]; pre-transplanting treatment)	Number of parasitic insects per 30 hills, Diamondback moth ([9]; pricking-in hole treatment)	Number of parasitic insects per 30 hills, Diamondback moth ([9]; soil incorporation)	Number of parasitic insects per 30 hills, Diamondback moth [9, 17]	Number of parasitic insects per 30 hills, Aphid (Aphid; plant foot treatment)	Number of parasitic insects per 30 hills, Aphid (Aphid; pre-transplanting treatment)	Number of parasitic insects per 30 hills, Aphid (Aphid; pricking-in hole treatment)	Number of parasitic insects per 30 hills, Aphid (Aphid; soil incorporation)	also measured
Cc1cc(C(F)(C(F)(F)F)C(F)(F)F)ccc1NC(=O)c1cccc(I)c1C(=O)NC(C)(C)CS(C)(=O)=O [Compound 130, N^2-(1,1-dimethyl-2-methylsulfonylethyl)-3-iodo-N^1-{2-methyl-4-[1,2,2,2-tetrafluoro-1-(trifluoromethyl)ethyl]-phenyl}phthalamide]	10	25	10	0	0	40	39.0	8.3	331	382	0.16	1	1	2	1	1	498	421	467	453	Number of parasitic insects per 30 hills, Aphid (Aphid; [17]): 399; Number of injured hills per 100 hills, After 60 days (Cutworm): 0; Number of injured hills per 100 hills, After 90 days (Cutworm): 7; Number of injured hills per 100 hills, After 120 days (Cutworm): 19; Number of parasitic insects per 20 leaves, After 60 days [10]: 21; Number of parasitic insects per 20 leaves, After 90 days [10]: 28; Number of parasitic insects per 20 leaves, After 120 days [10]: 50; Percentage of injured leaves (%) After 50 days [11]: 0.13%; Areal rate of disease spot (%) After 60 days (Rice Blast [12]): 7.9%; Herbicidal effect barnyard grass [13]: 0; Herbicidal effect fulrush [14]: 0; Phytotoxicity rice (rice plant): 0
Cc1cc(C(F)(C(F)(F)F)C(F)(F)F)ccc1NC(=O)c1cccc(I)c1C(=O)NC(C)(C)C[S+](C)[O-] (stereo not shown) [Compound 131, N^2-(1,1-dimethyl-2-methylsulfinylethyl)-3-iodo-N^1-{2-methyl-4-[1,2,2,2-tetrafluoro-1-(trifluoromethyl)ethyl]-phenyl}phthalamide]	5	20	0	0	0	41	41.2	8.3	342	391	0.14	1	2	2	1	1	486	428	391	432	Number of parasitic insects per 30 hills, Aphid (Aphid; [17]): 465; Number of injured hills per 100 hills, After 60 days (Cutworm): 0; Number of injured hills per 100 hills, After 90 days (Cutworm): 8; Number of injured hills per 100 hills, After 120 days (Cutworm): 21; Number of parasitic insects per 20 leaves, After 60 days [10]: 23; Number of parasitic insects per 20 leaves, After 90 days [10]: 30; Number of parasitic insects per 20 leaves, After 120 days [10]: 54; Percentage of injured leaves (%) After 50 days [11]: 0.16%; Areal rate of disease spot (%) After 60 days (Rice Blast [12]): 8.3%; Herbicidal effect barnyard grass [13]: 0; Herbicidal effect fulrush [14]: 0; Phytotoxicity rice (rice plant): 0
